Data on 57 molecules can be found in the supplement of paper PMC4723716.

Over roughly 3,600 compounds, “viability index relative to DMSO control” has its median near 0.81; the lowest 2% begin near 0.13. Some of the results follow.
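Further: 384-well serum-free SaLSSA: MitoTracker Red CMXRos staining with saponin lysis, high-content imaging, treated-well particle count divided by plate-mean count of DMSO wells.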

This test has as its system Plasmodium falciparum NF54 stage V gametocytes. Description: viability index relative to DMSO control (fraction); higher = less gametocyte killing. As to conditions: 1.25 µM, incubation time: 72 h.
Regarding `Cn1c2ccncc2c2cc([N+](=O)[O-])ccc21`, the viability index amounted to 1.13. Regarding `Cc1ccc(-c2cc(C(F)(F)F)n3ncc(C(=O)Nc4cc(Cl)ccc4O)c3n2)cc1`, the viability index came out at 0.554. With `CCC1(C)CC(CCNCc2ccccc2O)(c2ccc(OC)cc2)CCO1` (configuration not stated), the viability index stood at 0.764. As for `CC[n+]1c(C=CN(C)c2ccccc2)sc2ccc(Cl)cc21`, the figure is 0.957; as for `COc1cccc2cc(-c3csc(NC(=O)CCC(=O)NC4CCCC4)n3)c(=O)oc12`, 0.747. `CCCC[n+]1c(-c2ccccc2)cc(-c2ccccc2)cc1-c1ccccc1` gave a viability index of 0.692. As for `O=C(CCl)Nc1ccc(N2CCCCCC2)cc1`, the figure is 0.552.

Molecule `Cc1ccccc1-c1cccc(CN2CCCCC2CCn2cc(C(=O)NC3CC3)nn2)c1` (configuration not stated) came in with a viability index of 0.971. For the molecule `Sc1nnc(-c2ccncc2)n1CCc1ccccc1`, the viability index came to 0.847. Turning to `CCOc1ccc(CN2CCN(CC(O)COc3ccc(OCC(O)CN4CCN(Cc5ccc(OCC)cc5)CC4)cc3)CC2)cc1` (configuration not stated), the viability index was 0.815. The molecule `CC(=O)N(C1=C(N(C)C)C(=O)c2ccccc2C1=O)c1ccc(Cl)cc1` gave a viability index of 0.208. As for `CCOC(=O)C1=C(CC)NC2=C(C(=O)CC(C)(C)C2)C1c1ccc(Br)cc1` (configuration not stated), the figure is 1.02; as for `CC(C)c1ccc(NC(=O)c2ccc(NCCCN(C)Cc3ccccc3)c([N+](=O)[O-])c2)cc1`, 1.54. As for `COc1nncc(-c2cnnc(SC)n2)n1`, the figure is 0.665. Take `CCc1cc2c(NCCN3CCCCC3)ncnc2s1`: the viability index was determined as 0.989. As for `O=C1C2C(C(=O)N1c1cccc3ccccc13)C1C=CC2C12CC2` (configuration not stated), the figure is 0.785; as for `Cc1ccc(NC(c2ccccc2)(c2ccccc2)c2ccccc2)cc1C`, 0.466; as for `CCN1CCN(c2cc(C)c3cc(NC(=O)c4cc(OC)cc(OC)c4)ccc3n2)CC1`, 0.94. The molecule `CC(C)C1N=C2c3ccccc3N=C(SCC(=O)Nc3cc(C(F)(F)F)ccc3Cl)N2C1=O` (configuration not stated) had a viability index of 1.04. As for `Nc1ccc2nc(-c3cccc(-c4nc5ccc(N)cc5s4)c3)sc2c1`, the figure is 1.03.

Take `Cc1ccc(-c2noc(C3CCN(C(=O)Nc4ccc(C#N)cc4)CC3)n2)o1`: the viability index was 0.957.

`Cc1cc(S(=O)(=O)N2CCN(Cc3ccccc3)CC2)ccc1-n1cnnn1` had a viability index of 1. As for `CCOc1ccc(C=NNC(=O)CCn2nnc3ccccc32)cc1`, the figure is 0.822; as for `C=C(c1ccccc1)[n+]1ccc(C=Cc2ccccc2O)cc1`, 0.871. As for `O=C1NC(=S)NC1=Cc1cccc(Oc2ccccc2)c1`, the figure is 0.638; as for `CCC(=O)NC(c1ccccc1Cl)c1cc(Cl)c2cccnc2c1O` (configuration not stated), 0.86. As for `COc1cc(OC)cc(C(=O)NCc2n[nH]c(=S)n2-c2cccc(Cl)c2)c1`, the figure is 0.626.

For the molecule `COc1ccc(NC(=O)C2c3ccccc3C(=O)N(CC(C)C)C2c2cccs2)cc1OC` (configuration not stated), the viability index was 0.0723. In turn, `Cn1nc(-c2ccccc2)c2c(C(=O)C(F)(F)F)cc(C(=O)C(F)(F)F)c-2c1-c1ccccc1` had a viability index of 0.917.

Regarding `COc1cc(NC(C)CCCN(Cc2ccc(Cl)cc2)C(=O)C(C)C)c2ncccc2c1` (configuration not stated), the viability index amounted to 0.827. `N#CC1=C(N)Oc2c3c(c4ccccc4c2C1c1ccc(F)cc1)C(c1ccc(F)cc1)C(C#N)=C(N)O3` (configuration not stated) displayed a viability index of 0.813. As for `O=c1c2c([nH]c3ccccc13)CCCC2`, the figure is 0.535; as for `CC(Cl)=CCc1c(C)nc2c(ccc3ccccc32)c1O`, 0.527; as for `C=CCn1c(=O)c(C(=O)NCC[N+](CC)(CC)CC=C)c(O)c2ccccc21`, 0.631. `CCOc1ccc2[nH]c3c(NCCN(C)C)ncnc3c2c1`: the viability index was 0.933.

On to `Cc1ccc(NC(=O)c2sc3nc4c(c(-c5ccc(C)cc5)c3c2N)CCC4)cc1`, for which the viability index came to 0.656. With `Cc1cc(C)cc(C(=O)Nc2c3c(nn2-c2cccc(C)c2C)CS(=O)(=O)C3)c1`, the viability index worked out at 1.08. `Cc1cc(C=C2SC(=Nc3ccccc3)NC2=O)c(C)n1-c1ccccc1`: the viability index came to 0.833. As for `COC(=O)c1cccc(-c2cc(Cl)c3c(c2)CC(CNC(=O)c2c(C)noc2C)O3)c1` (configuration not stated), the figure is 0.702; as for `O=C(c1ccc([N+](=O)[O-])cc1)N1CCC(c2nc(O)c3nnn(Cc4c(F)cccc4Cl)c3n2)CC1`, 0.899; as for `Cc1cc(Nc2ccc(Cl)c(Cl)c2)n2nc(C)nc2n1`, 1.09. As for `COc1ccc(-n2nc(C(=O)NCCC3=CCCCC3)c3ccccc3c2=O)cc1`, the figure is 1.13.

Regarding `CC(=O)Nc1ccc(N2C(=O)CSC2c2ccc(Br)cc2)cc1` (configuration not stated), the viability index stood at 1.07.

Turning to `COc1ccc(C2CC(=O)C3=C(C2)NC(C)=C(C(=O)OC2CCCC2)C3c2ccccc2Cl)cc1OC` (configuration not stated), the viability index is 0.436. As for `O=C1CC(c2cccc([N+](=O)[O-])c2)c2cc3c(cc2N1)OCO3` (configuration not stated), the figure is 0.839. As for `O=c1c2c([nH]c3ccccc13)CCCCCC2`, the figure is 0.751; as for `N#Cc1ccc2c(c1)nc1c3ccc4c5c(ccc(c(=O)n21)c53)C(=O)NC4=O`, 0.224; as for `CCCOC(=O)C1=C(C)NC2=C(C(=O)CC(c3ccc(OC)cc3)C2)C1c1ccccc1Cl` (configuration not stated), 0.374.

Regarding `COc1ccc(C2c3[nH]c4ccccc4c3C[C@H]3C(=O)N(CCC(C)C)CC(=O)N23)cc1` (some centres not stated), the viability index is 0.803. Take `O=C(NCc1cccnc1)[C@@H]1C[C@H](NC2CCN(CCc3ccccc3)CC2)CN1Cc1ccc(Cl)cc1`: the viability index stood at 0.696. As for `COCCNC(=S)N(Cc1ccc(F)cc1)Cc1cc2ccc(C)c(C)c2[nH]c1=O`, the figure is 0.746; as for `O=C(CC1OC(=O)c2ccccc21)c1ccc(Cl)cc1` (configuration not stated), 0.496. As for `COc1cc2nc(Nc3ccc(F)cc3)nc(N)c2cc1OC`, the figure is 0.787; as for `COc1cc2nc(NCCCOC(C)C)n3nc(-c4ccccc4)nc3c2cc1OC`, 0.667. As for `COc1ccccc1NC(=O)Cn1cnc2sc(C(=O)Nc3ccc(F)cc3)c(C)c2c1=O`, the figure is 0.792; as for `COc1ccc(C=C2N=C(c3ccc(Cl)cc3)N(c3cc(Cl)ccc3C)C2=O)cc1OC`, 1.03.

Turning to `COCCCNC(=O)CSCc1nc(-c2ccccc2F)oc1C`, the viability index is 1.02.
